{
  "source": "patent US12578331B2",
  "about": "“Monolayer of PBMCs or bone-marrow cells and uses thereof” (Mobius Biotechnology GmbH, priority 2014, dated 2026)",
  "test_system": "PBMCs (CD11C, CD14, CD3, CD19 stained populations)",
  "conditions": "healthy donor PBMCs, 36 hours incubation, FIG. 4",
  "data": [
    {"smiles": "Nc1ccn([C@@H]2O[C@H](CO)[C@@H](O)[C@@H]2O)c(=O)n1", "note": "[cytarabine]", "values": [
      {"measurement": "drug-induced cell-population specific cytotoxicity", "result": "better target macrophages and dendritic cells, and B-cells to a lesser extent"}
    ]},
    {"smiles": "CCN(CC)Cc1ccc2cc(COC(=O)Nc3ccc(C(=O)NO)cc3)ccc2c1", "note": "[givinostat]", "values": [
      {"measurement": "drug-induced cell-population specific cytotoxicity", "result": "may not be effective for B-cell derived cancers"}
    ]}
  ]
}
